From article PMC4336329 (PLoS ONE, 2015) come the findings set out here.

The campaign covered roughly 310,000 compounds. About 2,200 (0.71%) showed an effect of 50% or more. Effects have a minus sign here. The list shows a part of the results.

human ether-à-go-go-related gene (hERG) potassium channel, sequence (Q12809 whole entry, looked up): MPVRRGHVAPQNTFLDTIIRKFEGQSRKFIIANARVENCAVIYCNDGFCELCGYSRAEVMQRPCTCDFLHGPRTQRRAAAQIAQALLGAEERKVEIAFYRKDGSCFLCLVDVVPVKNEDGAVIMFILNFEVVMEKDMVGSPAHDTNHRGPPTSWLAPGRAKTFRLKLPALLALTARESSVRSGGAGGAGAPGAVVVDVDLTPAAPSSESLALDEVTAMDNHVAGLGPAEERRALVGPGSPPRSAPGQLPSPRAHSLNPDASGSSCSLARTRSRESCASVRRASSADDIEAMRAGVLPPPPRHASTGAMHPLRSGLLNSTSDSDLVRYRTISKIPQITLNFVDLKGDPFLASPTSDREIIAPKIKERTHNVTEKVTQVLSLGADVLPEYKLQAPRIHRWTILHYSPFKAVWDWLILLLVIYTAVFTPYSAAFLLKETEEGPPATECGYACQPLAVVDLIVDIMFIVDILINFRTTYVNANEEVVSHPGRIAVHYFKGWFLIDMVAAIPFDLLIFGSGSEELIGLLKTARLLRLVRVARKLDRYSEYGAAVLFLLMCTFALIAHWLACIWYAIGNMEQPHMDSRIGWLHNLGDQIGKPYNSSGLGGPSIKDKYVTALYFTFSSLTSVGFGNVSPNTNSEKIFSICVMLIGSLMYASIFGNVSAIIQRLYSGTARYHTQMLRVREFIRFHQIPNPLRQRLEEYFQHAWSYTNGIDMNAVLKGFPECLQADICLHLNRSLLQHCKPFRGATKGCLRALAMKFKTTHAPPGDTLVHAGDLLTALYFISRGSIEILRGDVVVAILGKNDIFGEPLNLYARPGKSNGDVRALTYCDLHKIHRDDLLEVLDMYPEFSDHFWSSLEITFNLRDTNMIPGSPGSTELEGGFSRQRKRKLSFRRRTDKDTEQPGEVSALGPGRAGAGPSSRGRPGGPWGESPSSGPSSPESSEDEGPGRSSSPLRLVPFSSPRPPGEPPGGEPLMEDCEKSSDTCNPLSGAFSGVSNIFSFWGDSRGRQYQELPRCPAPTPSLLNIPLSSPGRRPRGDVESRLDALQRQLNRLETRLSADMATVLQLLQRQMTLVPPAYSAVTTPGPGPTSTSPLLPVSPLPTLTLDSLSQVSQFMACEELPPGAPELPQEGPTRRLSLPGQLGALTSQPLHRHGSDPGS

This experiment concerns the target human ether-à-go-go-related gene (hERG) potassium channel (human, UniProt Q12809). Briefly: primary screen, population patch clamp on CHO cells stably expressing hERG.
Turning to `COc1ccc(/C=C2/C(=O)NC(=S)N(C3CC3)C2=O)cc1CN1C(=O)c2ccccc2C1=O`, the “hERG current change (%, negative = inhibition) at 1uM” value worked out at 7.52%. With `COc1ccc(OC)c(S(=O)(=O)NC(C)c2cnn(-c3ccccn3)c2C)c1` (centres unmarked) the figure was 3.76%.

In the case of `CC(C)(C)c1ccc(OCC(=O)Nc2cccc(S(=O)(=O)NC3=NCCCCC3)c2)cc1`, the “hERG current change (%, negative = inhibition) at 1uM” value was 3.94%. With `CN(C)c1ccc(NC(=O)CN2C(=O)CN=C(c3ccccc3)c3ccccc32)cc1` the figure was 10%; with `CC(=O)Nc1ccc(Nc2nc(C)nc3c2oc2ccccc23)cc1`, 12.8%; with `C=CCn1c(=S)[nH]c2cc(-c3ccccc3)sc2c1=O`, 19.1%.

Consider `CNC(=O)Oc1ccc2c(c1)[C@]1(C)CCN(C)[C@@H]1N2C`, for which the “hERG current change (%, negative = inhibition) at 1uM” value turned out to be 6.99%. Turning to `CCN(CC)C(=O)CSc1nc2c(sc(=S)n2-c2ccccc2)c(=O)[nH]1`, the “hERG current change (%, negative = inhibition) at 1uM” value worked out at 0.377%.

Take `COc1ccccc1-c1c(C)nn2c(N3CCN(c4ccccc4OC)CC3)cc(C)nc12`: the “hERG current change (%, negative = inhibition) at 1uM” value amounted to 7.23%.

As for `COc1ccc(-c2onc3ccc(Cl)cc23)cc1`, the “hERG current change (%, negative = inhibition) at 1uM” value is 16.6%.

With `NS(=O)(=O)c1ccc(CCNC(=O)c2ccc(Cn3c(=O)[nH]c4ccccc4c3=O)cc2)cc1`, the “hERG current change (%, negative = inhibition) at 1uM” value is -0.42%. In the case of `O=C(NC(Cc1ccccc1)C(=O)NCc1ccccn1)c1ccco1` (centres unmarked) it was 5.81%; in that of `CCOc1ccc(CN2CCN(Cc3[nH]c4ccccc4c3C)CC2CCO)cc1` (centres unmarked), -75.2%.

For `O=C(O)/C=C/c1cccnc1`, the “hERG current change (%, negative = inhibition) at 1uM” value was 13%. Turning to `C=CCOc1c(Br)cc(CNc2ccc(NC(=O)C(C)C)c(OC)c2)cc1OCC`, the “hERG current change (%, negative = inhibition) at 1uM” value came out at 4.04%.

Turning to `c1ccc(-c2nc(-c3ccccn3)nc(-c3ccccn3)n2)nc1`, the “hERG current change (%, negative = inhibition) at 1uM” value is 16.8%. With `CCCOc1c(Br)cc(C(N)=O)cc1OCC` the figure was 5.14%; with `COCCCNC(=S)NNC(=O)C(O)(c1ccccc1)c1ccccc1`, -14.2%; with `CCS(=O)(=O)N1CCC(C(=O)NCc2ccccn2)CC1`, -0.459%. In the case of `COc1ccccc1C(=O)NCc1ccccc1` it was 14.1%; in that of `CSc1nc(O)c(C(c2ccc(C)cc2)c2c(O)nc(SC)[nH]c2=O)c(=O)[nH]1`, 11.6%; in that of `CC(CS(=O)(=O)c1cccc2cccnc12)N1CCCCC1` (centres unmarked), 8.83%.

Take `c1ccc2c(-c3c[nH]c4ccccc34)c3ccccc3nc2c1`: the “hERG current change (%, negative = inhibition) at 1uM” value amounted to 14.3%.

In the case of `CC(=O)c1c(C(=O)O)c2ccccc2[nH]c1=O`, the “hERG current change (%, negative = inhibition) at 1uM” value is recorded as 10.1%. With `Cc1ccc(CCNC(=O)c2ccc(CS(=O)(=O)Cc3ccccc3F)o2)cc1` the figure was 5.38%; with `Cc1ccc(C(C(=O)NC2CCCCC2)N(CC2CCCO2)C(=O)CNC(=O)c2cccs2)cc1` (centres unmarked), -2.84%. With `CC1CCCC(NC(=O)COC(=O)[C@@H](NC(=O)c2ccco2)C(C)C)C1C` (some centres unmarked) the figure was -4.22%. For `COc1ccc(OC)c(NC(=O)CN(c2ccc(OC)c(Cl)c2)S(C)(=O)=O)c1`, the “hERG current change (%, negative = inhibition) at 1uM” value worked out at 2.52%. Turning to `O=c1[nH]c(=O)n(CCc2ccccc2)c(O)c1C=NCCN1CCNCC1`, the “hERG current change (%, negative = inhibition) at 1uM” value was determined as 0.43%. With `COc1ccc(CCNC(=O)CCOc2ccc(C)cc2)cc1OC` the figure was 9.77%; with `CCOC(=O)c1cnc2ccccc2c1Nc1cccc(C(=O)O)c1.Cl`, 15%; with `CCOC(=O)c1ccc(N2CCOCC2)c(NC(=O)c2c(-c3ccccc3)noc2C)c1`, 7.87%. With `O=C(O)C1CC(=O)N(CCc2ccc(F)cc2)C1` (centres unmarked) the figure was 15.2%; with `Cc1ccc(S(=O)(=O)N2CCN(c3ccc(C(=O)N4CCOCC4)cc3[N+](=O)[O-])CC2)cc1`, -7.36%. `Cc1c(C=Nc2ccc(S(=O)(=O)N(C)C)cc2)c(O)[nH]c(=O)c1C#N`: the “hERG current change (%, negative = inhibition) at 1uM” value was found to be 16.6%. In the case of `O=C(CC1SC(=Nc2ccc(OC(F)F)cc2)N(CCN2CCOCC2)C1=O)Nc1ccc(F)cc1F` (centres unmarked) it was -80.4%; in that of `Cc1ccc(C(=O)Nc2ccccc2C(=O)NC(Cc2c[nH]c3ccccc23)C(=O)O)cc1` (centres unmarked), 10.2%; in that of `COc1ccc(-c2cc(=O)c3cc(OC)c(OC)cc3[nH]2)cc1`, 2.37%. With `COc1ccc(Br)cc1C(=O)NCc1cccnc1`, the “hERG current change (%, negative = inhibition) at 1uM” value is reported as -15.8%. In the case of `CC(C)NC(=O)c1cc(-c2ccc3c(c2)OCO3)on1` it was 11.6%; in that of `CN(C)CC#CCC(O)(c1ccccc1)C1CCCCC1` (centres unmarked), 13.3%. In the case of `Cc1cccc(COc2coc(CN3CCN(C(=O)c4ccco4)CC3)cc2=O)c1` it was -7.28%. In the case of `O=C(Cc1ccc(S(=O)(=O)N2CCOCC2)s1)NCCC(c1ccccc1)c1ccccc1` it was -3.02%; in that of `CCOc1ccc(N(C(C)C(=O)N2CCCC2)S(C)(=O)=O)cc1` (centres unmarked), 13.2%; in that of `COCC(=O)Nc1cc(OC)c(Cl)cc1OC`, 3.8%. Consider `CC(C)CC(=O)Nc1nnc(SCC(=O)NCC2CCCO2)s1` (centres unmarked), for which the “hERG current change (%, negative = inhibition) at 1uM” value was found to be 8.63%. In the case of `CNC(=O)c1ccc(NC(=O)CC23CC4CC(CC(C4)C2)C3)cc1` it was 19.5%; in that of `COc1cccc(CNC(=O)Cn2ncc3c(=O)oc4ccccc4c32)c1`, 3.34%; in that of `O=C(NCCc1ccc(Cl)cc1)c1cc2ccccn2n1`, 5.29%. With `CCc1ccc(NC(=O)CSc2nc(=O)n3cc(C)ccc3n2)cc1` the figure was -4.72%; with `CSc1nc2nccc(-c3ccc(-c4ccccc4)cc3)n2n1`, 8.03%; with `Cc1ccc(N2C(=O)C3C4C=CC(CNC(=S)Nc5ccc(F)cc5)(O4)C3C2=O)cc1` (centres unmarked), 2.93%. With `CCN(CC)CC(=O)Nc1c(C)cccc1C.Cl.O` the figure was -4.22%. As to `COc1ccc(-c2[nH]ncc2CN(C)Cc2cnccn2)c(OC)c1`, the “hERG current change (%, negative = inhibition) at 1uM” value was 11.7%. With `COC(=O)C(C)Sc1nc2c(cnn2-c2ccc(C)cc2)c(=O)[nH]1` (centres unmarked) the figure was 8.65%.

For `CCOC(=O)c1c(NC(=O)c2ccccc2Cl)sc2c1CCc1ccccc1-2`, the “hERG current change (%, negative = inhibition) at 1uM” value is recorded as 16.6%. Consider `Cc1ccc(Cl)cc1NC(=O)COC(=O)C1CCCC1`, for which the “hERG current change (%, negative = inhibition) at 1uM” value is recorded as 4.08%. In the case of `CCCCn1c2ccccc2c2cc(CC(N)=O)ccc21` it was 10.9%; in that of `COc1ccc2cc(C3CC(c4ccco4)=NN3S(C)(=O)=O)c(Cl)nc2c1` (centres unmarked), 8.22%; in that of `O=C(Nc1ccc([N+](=O)[O-])cn1)c1cccnc1`, 10%. With `Cn1c(=O)c2[nH]c(CCCC(=O)O)nc2n(Cc2ccccc2)c1=S` the figure was 14.1%; with `N#CC1(NC(=O)COC(=O)c2cc([N+](=O)[O-])ccc2N2CCCC2)CCCCC1`, 5.64%; with `Cc1c(C(C)(C)O)[nH]c2ccc(C(F)(F)F)cc12`, -3.91%. In the case of `O=C(NCc1cccnc1)c1cccnc1Sc1ccc(Cl)cc1` it was 6%; in that of `COCc1ccc(C(=O)N2CCCC(C(=O)c3ccc(SC)cc3)C2)o1` (centres unmarked), -10.7%. For `CCOC(=O)c1c(NC(=O)CCl)sc(CN(C)C)c1-c1ccccc1.Cl`, the “hERG current change (%, negative = inhibition) at 1uM” value was determined as 13.3%. In the case of `CC1CCN(C(=O)C2CCC(CNc3c(N4CCCCC4)c(=O)c3=O)CC2)CC1` (centres unmarked) it was 14.9%; in that of `COc1cc(NC(=S)NCCCN2CCOCC2)c(OC)cc1NC(=O)c1ccco1`, 8.64%; in that of `Cc1cc(C(=O)N/N=C/c2c(CO)cnc(C)c2O)c2ccccc2n1`, 15.3%. With `COc1ccc(-c2cc(C(=O)N3CCCCC3)c3ccccc3n2)cc1` the figure was 6.49%. Regarding `CCS(=O)(=O)c1ccc(O)c(NC(=O)COc2ccc(Cl)cc2)c1`, the “hERG current change (%, negative = inhibition) at 1uM” value was 3.4%. On to `Nc1nnc(SCC(=O)NC23CC4CC(CC(C4)C2)C3)s1`, for which the “hERG current change (%, negative = inhibition) at 1uM” value is given as 6.87%. `O=C(O)CSCCc1ccccn1`: the “hERG current change (%, negative = inhibition) at 1uM” value came to 6.63%. In the case of `O=C(O)CCCC(=O)NCc1ccccn1` it was 17.3%; in that of `COc1ccc(-c2n[nH]c(C)c2-c2cnn(-c3ccccc3)c2)c(O)c1`, 2.51%; in that of `O=C(Cn1nnc(-c2ccccc2NC(=O)c2ccco2)n1)NC1CCCCC1`, 9.18%. With `CCCn1c(=O)c(C(=O)c2ccccc2)nc2ccccc21` the figure was -0.484%. In the case of `CC(=O)Nc1ccc(/C=N/Nc2nncc3ccccc23)cc1` it was 10.2%; in that of `Cc1cccc(/C=N/NC(=O)c2cc(C)nc3ccccc23)n1`, 4.79%. For `O=C1OC(=O)C2C3CCC(O3)C12` (centres unmarked), the “hERG current change (%, negative = inhibition) at 1uM” value is 9.77%. With `CN1CCN(C(=O)c2ccccc2-c2nc(-c3ccccc3)no2)CC1` the figure was -6.65%. In the case of `CCC(C)NC(=O)c1cnn2c(C)c3c(nc12)CCCC3` (centres unmarked) it was -3.03%; in that of `CCCCC1CCCC12NC(=O)NC2=O` (centres unmarked), 11.4%. With `CCC(=O)NC(=S)NNC(=O)c1ccc([N+](=O)[O-])cc1` the figure was 8.99%; with `CNC(=O)NC(=S)NC(=O)c1cccc(Cl)c1`, 18.7%; with `CCCSCCCNC(=O)Cn1nc(CC)n2c(cc3c(OC)cccc32)c1=O`, 10.6%. On to `FC(F)(F)c1ccccc1NC(=S)N1CCCC1`, for which the “hERG current change (%, negative = inhibition) at 1uM” value was found to be 15.2%. Consider `CCC(=O)Nc1nnc(-c2ccco2)o1`, for which the “hERG current change (%, negative = inhibition) at 1uM” value stood at 2.56%. With `CN(Cc1ccccc1)C(=O)CCCn1c(=O)[nH]c2cc(Cl)ccc2c1=O` the figure was -1.14%; with `Cc1c(O)ccc2c3c(c(=O)oc12)CCC(C)C3` (centres unmarked), 13.5%. With `Cc1ccc(S(=O)(=O)NCCOc2nc(N(C)C)nc(N(C)C)n2)cc1` the figure was 8.91%. With `COC(=O)Nc1nn(-c2ccc(C)cc2)c(=O)c(C#N)c1C` the figure was 4.77%.
